PubChem BioAssay AID485294 (National Center for Advancing Translational Sciences (NCATS), 2010)
About 150 (0.041%) of roughly 370,000 compounds were called active. This list was built around the results that the source calls inconclusive (neither active nor inactive); the mix of calls is not that of the screen. Calls follow the shape of the dose curve; as a rule, active = well fitted inhibition curve with a large enough effect; inconclusive = small, poorly fitted or top-dose-only effect; inactive = flat fitted curve, though single readings scatter. No potency is given beside an inconclusive call; the fits are too rough.

Target: Beta-lactamase (Escherichia coli (strain K12)) (UniProt P00811)
Sequence of UniProt P00811 (P00811 whole entry, looked up): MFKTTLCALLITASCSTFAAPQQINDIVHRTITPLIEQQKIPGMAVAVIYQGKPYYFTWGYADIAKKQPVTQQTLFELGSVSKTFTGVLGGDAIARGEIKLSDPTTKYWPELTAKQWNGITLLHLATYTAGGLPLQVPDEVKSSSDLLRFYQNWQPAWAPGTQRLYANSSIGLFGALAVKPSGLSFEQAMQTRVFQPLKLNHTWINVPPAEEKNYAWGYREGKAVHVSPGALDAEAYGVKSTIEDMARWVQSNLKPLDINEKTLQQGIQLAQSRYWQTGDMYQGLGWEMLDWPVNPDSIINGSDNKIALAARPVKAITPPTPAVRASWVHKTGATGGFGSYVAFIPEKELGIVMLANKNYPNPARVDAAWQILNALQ
Experiment: qHTS Inhibitors of AmpC Beta-Lactamase (assay with detergent); also: nearly all actives have a fitted effect of over 25% in size;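 as to activity change, negative = inhibition: 0% = no-compound wells and -100% = no-enzyme wells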
Conditions: AmpC hydrolysis of nitrocefin, absorbance 480 nm, 0.01% Triton; activity change, negative = inhibition: at 114 µM (top of the series)
Procedure, shortened: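 20 mM phosphate pH 7.0 + 0.01% (detergent screen) or 0.0001% Triton X-100; 5.3 nM AmpC reagent; cpd preinc 15 min RT; nitrocefin (800 uM stock) to start; A480 q20 s × 4 min; Activity was normalised to no-enzyme and no-compound control wells.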
Potency is read from the fitted curve at half-maximal effect; tags tell the direction and shape of the fitted curve.

| SMILES | Potency | activity change, negative = inhibition |
| --- | --- | --- |
| Cc1cc(OCc2nn[nH]n2)c2c3c(c(=O)oc2c1)CCC3 | inconclusive [inhibitor, full curve, poor fit] | – |
| NC(=O)c1nsc(C(=O)N(c2ccccc2)C(C(=O)NC2CCCC2)c2cccs2)c1N (centres undefined) | – | inactive: -8.99% |
| CC(=O)Nc1ccc(OCC(O)CN2CCN(c3ccc(Cl)cc3)CC2)cc1 (centres undefined) | – | inactive: 6.72% |
| O=C1CCN(c2ncccc2[N+](=O)[O-])CC1 | inconclusive [inhibitor, partial curve, poor fit] | – |
| O=C(Nc1nc(-c2ccccc2)cs1)C1CCCN(S(=O)(=O)c2ccccc2)C1 (centres undefined) | – | inactive: 6.46% |
| CSc1nc2ccc(NS(=O)(=O)c3ccc(Cl)s3)cc2s1 | inconclusive [inhibitor, partial curve] | – |
| Cc1ccc(-c2oc3ccccc3c(=O)c2OCC(=O)O)cc1 | inconclusive [inhibitor, partial curve] | – |
| O=C(Cc1ccc(-c2ccccc2)cc1)NCCS(=O)(=O)N1CCN(c2cccc(Cl)c2)CC1 | – | inactive: 11.1% |
| O=C(CCN=C1NS(=O)(=O)c2ccccc21)OCC(=O)c1ccc(F)c(F)c1 | inconclusive [inhibitor, full curve, poor fit] | – |
| O=C(Oc1ccc([N+](=O)[O-])cc1)N1CCC(N2CCCCC2)CC1 | inconclusive [inhibitor, partial curve, poor fit] | – |
| Nc1ccc(C(=O)Nc2nc3ccccc3s2)cc1 | inconclusive [inhibitor, full curve, poor fit] | – |
| COc1ccc(Cl)c(NC(=O)Nc2c(C)n(-c3ccccc3)c(=O)n2C)c1 | inconclusive [inhibitor, full curve, poor fit] | – |
| COC(=O)CC(=O)CSc1nc2cc(C(=O)NC(C)C)ccc2c(=O)n1CCc1ccccc1 | – | inactive: 10.9% |
| CCOc1ccc(N2C(N)=NC(N)=NC2(C)C)cc1 | inconclusive [inhibitor, full curve] | – |
| COc1ccccc1C(c1nnnn1CS(=O)(=O)c1ccc(C)cc1)N1CCSCC1 (centres undefined) | inconclusive [inhibitor, full curve] | – |
| O=C(Nc1cccnc1)Nc1ccc(F)c(Cl)c1 | – | inactive: 2.62% |
| COc1ccc(S(=O)(=O)N2CCCCC2)cc1C(=O)N1CCCC1 | inconclusive [inhibitor, partial curve] | – |
| Nc1c(NC(=O)CC[n+]2ccccc2)cccc1[N+](=O)[O-] | inconclusive [inhibitor, single point] | – |
| CCn1c(CC(=O)Nc2ccc(F)cc2)nnc1SCC(=O)Nc1nnc(C)s1 | inconclusive [inhibitor, single point] | – |
